Test results: the supplement of paper PMC3334620
Whole data set: some 33,000 sequences, median “E-score (-0.5 to 0.5)” near -0.054, cut for the highest 2% near 0.35. The list shows a part of the results.

target: T1, Stb5 (UniProt P38699); experiment: PBM E-score (8-mer binding enrichment) (E-score (-0.5 to 0.5)); higher = stronger / more preferred TF binding; most listed sequences are background and not binding sites; settings: protein concentration: 200 nM; construct: GST-full length
T1 sequence: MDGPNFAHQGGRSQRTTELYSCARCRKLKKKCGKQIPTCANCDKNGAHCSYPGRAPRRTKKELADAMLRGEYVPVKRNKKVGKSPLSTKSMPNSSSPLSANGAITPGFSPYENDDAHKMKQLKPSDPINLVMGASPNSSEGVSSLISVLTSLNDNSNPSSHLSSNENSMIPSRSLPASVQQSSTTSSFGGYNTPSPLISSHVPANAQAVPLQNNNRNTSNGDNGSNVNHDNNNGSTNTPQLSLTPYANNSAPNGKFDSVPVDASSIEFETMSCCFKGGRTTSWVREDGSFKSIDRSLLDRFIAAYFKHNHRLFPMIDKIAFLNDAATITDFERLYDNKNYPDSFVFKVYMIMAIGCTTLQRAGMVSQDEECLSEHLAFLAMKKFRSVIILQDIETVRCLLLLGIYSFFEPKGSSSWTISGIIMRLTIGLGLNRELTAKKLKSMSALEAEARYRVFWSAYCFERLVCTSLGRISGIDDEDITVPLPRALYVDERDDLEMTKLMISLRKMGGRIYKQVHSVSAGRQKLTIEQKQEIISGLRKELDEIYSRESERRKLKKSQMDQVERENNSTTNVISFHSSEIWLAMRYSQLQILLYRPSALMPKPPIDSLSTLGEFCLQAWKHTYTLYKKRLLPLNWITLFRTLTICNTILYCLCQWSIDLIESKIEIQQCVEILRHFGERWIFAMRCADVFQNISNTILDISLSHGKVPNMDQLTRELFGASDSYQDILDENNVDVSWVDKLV
Procedure, shortened: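 Universal all-10-mer Agilent arrays, double-stranded by primer extension on fresh or once-stripped slides, were probed with about 100-200 nM GST-tagged yeast transcription factors made by PURExpress. Fluorescent anti-GST detected bound protein, and masliner normalised the scans. E-scores from the Universal PBM Analysis Suite were given to each ungapped eight-base word pooled with its reverse complement.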

Sequence	PBM E-score
CAGGGTGC	-0.0545
AAGCAACA	-0.157
CTAGAACC	0.0742
ATCCGCAT	0.228
AAACTTGT	-0.145
CGATCTCA	-0.0469
GGGCCGAA	0.175
CGGTTAGA	0.0936
CCCCGAGG	0.148
ACATTGCA	-0.0999
ACGTTCTG	-0.235
CATGAAGC	0.0101
AACGCCCG	0.24
ACGCAATA	-0.194
GATGGTCC	0.145
CCAGGACA	-0.134
TATGTTGA	-0.0726
GACGTCCA	-0.019
AGTCAAGG	-0.289
ACACTTAC	-0.165
GCTCGAAC	-0.229
GCGAGGAA	-0.0244
GGCTCCAC	-0.156
TCGTCCCA	-0.106
ATAGCCGA	0.216

Sequence	PBM E-score
AACGCAGT	-0.178
CTAACAGC	0.117
CAGCCCTA	-0.108
AATATATA	0.217
ATTTGTAA	-0.134
GGGTTCAC	0.094
CATAGACC	0.135
GAGTATCC	0.033
ATGCTGTA	-0.141
GGGATCTA	0.0662
ATGATCAG	-0.162
CAGTAGTA	-0.289
TCGCATCA	0.0229
GAGTATCA	0.00537
ACCACCAA	-0.0217
ATGTGAAA	-0.213
ACAATTCT	-0.237
GCTGTAGA	-0.206
CTCAGTGA	-0.207
AAGTGCTC	-0.227
CGCCAACA	0.0601
CTTCTACA	-0.162
GCAGGGAA	-0.0679
CTTGTAAA	-0.047
AATCGGAA	0.0927

Sequence	PBM E-score
AGCTTCCT	-0.248
AAAACCGT	0.2
GGGGAGGA	-0.183
ATGGTTGG	0.0159
AGTAATGG	-0.147
ATTTCGTG	-0.112
AGGACCCG	0.132
GAACCTTA	0.0737
ACCTGTCA	0.00165
CACCTATG	0.0233
CATGTTCC	-0.0768
GCGTGCTA	-0.239
ATAGATGG	-0.076
CTGCTCTA	-0.132
CGGCACGA	0.294
ACACCTAG	0.132
CGCCTTTA	0.105
CAATTATA	-0.123
CGGTAGTA	0.385
CCAGTCTA	-0.158
GCTTGTGA	-0.282
ACGGGTGC	-0.0196
GCTGCCTA	-0.112
AAATCTAC	-0.0228
AAATCTGT	-0.203

Sequence	PBM E-score
CAGTGTTC	-0.104
CCACTGCG	-0.0774
ATCTCGTC	0.0028
AGCCCAAG	-0.15
AAAATAGT	-0.00761
ACAAGCGA	-0.217
GAGCGGCC	0.293
CCTGATAC	-0.0287
CAAGAGGC	-0.0488
CCTTCGAC	-0.171
GATCTCTA	-0.151
CACGCTGC	-0.0954
ACTTAACG	-0.0606
AGGTCCAC	-0.0841
AAAGCGGT	0.292
ATGTTCGC	0.0661
CATCAGCA	-0.126
CGTGGCTA	-0.162
ACCGTTCG	0.215
AATCAATA	-0.125
CATTGGGA	-0.193
GATCCATC	-0.0119
ACGAAGAC	-0.00145
CGCTCTGA	0.0658
CCCCGGTC	0.369

Sequence	PBM E-score
AACCAATA	-0.126
AAGTGTTG	-0.263
CCCCTCCG	-0.00651
TACAGTCA	-0.195
AACGAACC	-0.116
CCAGTTGC	-0.0972
TGCCCCCA	-0.125
ACAGCGAA	0.0495
TGAGAGCA	-0.206
ATCATTAA	0.0391
AATATATG	0.129
ACACGGGC	0.191
AGTACTCC	-0.101
CGTCAGCA	-0.28
GATCTAAC	-0.143
AATTTTCT	-0.162
AACAGTCT	-0.364
ATTTGAAC	0.131
ATAAATCC	0.382
CCCGATTC	0.27
AACAAAGT	-0.0267
ACACTGAC	-0.166
CGATACAC	0.0819
CTTCGTCA	-0.133
CCCGCCAC	0.307

Sequence	PBM E-score
TACGCCAA	-0.186
AAAGGGCG	-0.0161
CGCCGAGA	0.225
TCAGAACA	-0.175
GCTGTCAA	0.0415
AAGGAAGG	-0.209
CACTAGTC	-0.169
GTGCACTA	-0.208
ACCAGTGC	-0.204
CGGTAAGA	0.263
AAGTGAGT	-0.073
CCCACGGG	0.122
AACTGTGC	-0.157
CAAGCTCC	0.127
CATTGCGC	-0.0616
AATTCCCT	-0.0892
GGCACCAC	-0.00064
TAAGTATA	0.0313
GCGAGTAA	-0.0954
TCCCCAGA	-0.131
ATAGACCA	-0.188
ATCACCGA	0.433
AGGCGCCC	-0.152
CGACAGTA	0.0893
ATATTGCC	0.27

Sequence	PBM E-score
AACACACC	0.217
AGTACATC	0.0635
ACAAAGTA	-0.198
ACGCCCAA	-0.231
CGGCTGGA	-0.00051
AGTAATAC	0.11
AGTGAATA	-0.11
GGCGCAAC	-0.0183
AAAGTAAC	-0.0927
ACCTCTAG	-0.0589
CAGTGGGA	0.0102
CATCAAAC	-0.00585
GGGTTGGA	0.0354
CTTACGGA	0.0481
CGGAGAAG	0.193
CCCACAAA	-0.164
AAATAGTG	-0.216
AGTAAGAT	-0.0392
CTCCTGGC	-0.0294
AACTCTCA	-0.268
GACTGGAA	-0.0578
CCCTGTCA	-0.308
